The source of these data is article PMC4892509, “Binding of the Fkh1 Forkhead Associated Domain to a Phosphopeptide within the Mph1 DNA Helicase Regulates Mating-Type Switching in Budding Yeast” (PLoS Genetics, 2016).

By UniProt entry, the sequences of proteins in these tests, tags left out. Where a name states a change or a piece, a line headed by the entry shows the natural chain unless it says otherwise. Chains listed by the source or under a name are the forms on record and can include a tag or linker. Residues count along the entry.
UniProt P40562: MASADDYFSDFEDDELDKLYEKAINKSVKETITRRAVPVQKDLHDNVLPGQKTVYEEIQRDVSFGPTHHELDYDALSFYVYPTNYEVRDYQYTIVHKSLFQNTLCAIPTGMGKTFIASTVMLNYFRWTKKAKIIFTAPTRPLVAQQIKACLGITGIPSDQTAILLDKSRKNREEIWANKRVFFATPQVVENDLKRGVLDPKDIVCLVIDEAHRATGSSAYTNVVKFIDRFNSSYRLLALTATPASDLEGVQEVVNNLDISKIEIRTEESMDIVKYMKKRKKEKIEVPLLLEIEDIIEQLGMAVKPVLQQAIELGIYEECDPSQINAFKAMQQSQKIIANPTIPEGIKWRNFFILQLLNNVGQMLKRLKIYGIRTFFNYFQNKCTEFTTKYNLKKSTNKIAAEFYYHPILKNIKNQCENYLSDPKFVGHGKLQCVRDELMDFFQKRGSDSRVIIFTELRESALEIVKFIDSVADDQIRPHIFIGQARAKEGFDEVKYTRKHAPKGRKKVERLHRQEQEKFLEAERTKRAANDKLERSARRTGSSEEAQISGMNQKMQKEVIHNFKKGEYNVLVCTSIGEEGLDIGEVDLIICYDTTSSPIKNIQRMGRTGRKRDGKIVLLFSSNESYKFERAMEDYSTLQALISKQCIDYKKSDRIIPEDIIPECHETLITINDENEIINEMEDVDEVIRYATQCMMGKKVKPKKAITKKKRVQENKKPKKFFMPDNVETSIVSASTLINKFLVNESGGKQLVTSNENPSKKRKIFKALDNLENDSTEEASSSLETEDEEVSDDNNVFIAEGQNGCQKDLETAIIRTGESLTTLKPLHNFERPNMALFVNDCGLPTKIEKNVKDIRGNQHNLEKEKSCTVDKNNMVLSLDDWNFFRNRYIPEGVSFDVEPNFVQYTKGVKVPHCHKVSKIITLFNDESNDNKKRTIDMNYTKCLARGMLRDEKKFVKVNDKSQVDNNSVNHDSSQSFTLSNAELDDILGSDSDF
GBD-Mph1(751–810): residues 751-810 of P40562
GBD-Mph1-Ct (amino acids 762–993): residues 762-993 of P40562
GAD-Mph1-Ct (amino acids 762–993) T776E (P40562, form named): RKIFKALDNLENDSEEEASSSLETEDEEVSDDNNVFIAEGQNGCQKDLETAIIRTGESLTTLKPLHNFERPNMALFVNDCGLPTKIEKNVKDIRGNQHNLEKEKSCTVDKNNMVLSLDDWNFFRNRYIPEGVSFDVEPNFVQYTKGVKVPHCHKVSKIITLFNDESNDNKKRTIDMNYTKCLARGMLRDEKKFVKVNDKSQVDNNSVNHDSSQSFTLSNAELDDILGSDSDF
GAD-Mph1-Ct (amino acids 762–993) T776E T785E (P40562, form named): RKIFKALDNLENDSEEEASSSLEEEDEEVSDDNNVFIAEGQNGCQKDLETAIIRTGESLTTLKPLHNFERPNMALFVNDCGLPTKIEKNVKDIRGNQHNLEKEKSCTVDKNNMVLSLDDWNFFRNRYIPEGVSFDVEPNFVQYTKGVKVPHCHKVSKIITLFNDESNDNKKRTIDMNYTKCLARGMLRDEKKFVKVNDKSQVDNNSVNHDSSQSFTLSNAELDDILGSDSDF
GAD-Mph1-Ct (amino acids 762–993) T776D T785D (P40562, form named): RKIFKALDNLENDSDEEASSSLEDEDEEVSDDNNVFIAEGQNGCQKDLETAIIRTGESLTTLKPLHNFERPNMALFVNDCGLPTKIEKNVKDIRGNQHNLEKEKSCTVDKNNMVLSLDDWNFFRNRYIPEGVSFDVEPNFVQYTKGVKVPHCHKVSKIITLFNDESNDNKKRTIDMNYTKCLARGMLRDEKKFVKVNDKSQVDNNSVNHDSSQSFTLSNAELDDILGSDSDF
GBD-Mph1-Ct (amino acids 762–993) T776AT785A (P40562, form named): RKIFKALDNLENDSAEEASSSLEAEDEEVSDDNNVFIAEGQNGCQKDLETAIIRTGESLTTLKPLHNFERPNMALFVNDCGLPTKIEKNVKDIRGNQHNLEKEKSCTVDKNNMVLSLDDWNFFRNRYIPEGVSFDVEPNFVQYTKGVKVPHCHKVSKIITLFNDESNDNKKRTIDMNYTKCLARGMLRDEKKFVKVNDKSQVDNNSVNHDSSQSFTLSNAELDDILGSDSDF
GAD-Mph1-Ct (amino acids 762–993) T785D (P40562, form named): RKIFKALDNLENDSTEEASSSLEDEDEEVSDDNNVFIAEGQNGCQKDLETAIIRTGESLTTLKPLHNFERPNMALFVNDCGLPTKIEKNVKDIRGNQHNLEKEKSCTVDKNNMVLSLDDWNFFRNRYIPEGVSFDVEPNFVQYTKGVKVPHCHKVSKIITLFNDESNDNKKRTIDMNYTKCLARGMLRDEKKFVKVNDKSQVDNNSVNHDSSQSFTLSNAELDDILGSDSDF
GAD-Mph1-Ct (amino acids 762–993) T776D (P40562, form named): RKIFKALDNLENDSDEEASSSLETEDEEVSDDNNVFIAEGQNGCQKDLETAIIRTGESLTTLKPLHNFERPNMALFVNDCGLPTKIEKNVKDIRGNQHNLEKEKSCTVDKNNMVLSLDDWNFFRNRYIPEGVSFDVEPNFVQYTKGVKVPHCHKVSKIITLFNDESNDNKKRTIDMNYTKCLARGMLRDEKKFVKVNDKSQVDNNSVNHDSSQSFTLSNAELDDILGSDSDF
GAD-Mph1-Ct (amino acids 762–993) T785E (P40562, form named): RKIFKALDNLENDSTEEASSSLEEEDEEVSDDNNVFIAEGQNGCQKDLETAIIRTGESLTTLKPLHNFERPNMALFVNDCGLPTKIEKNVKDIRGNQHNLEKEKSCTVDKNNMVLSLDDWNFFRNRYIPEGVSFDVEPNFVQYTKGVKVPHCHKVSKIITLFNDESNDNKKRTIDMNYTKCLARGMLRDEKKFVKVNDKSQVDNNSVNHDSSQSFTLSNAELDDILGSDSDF
GBD-Mph1-Ct (amino acids 762–993) T776A (P40562, form named): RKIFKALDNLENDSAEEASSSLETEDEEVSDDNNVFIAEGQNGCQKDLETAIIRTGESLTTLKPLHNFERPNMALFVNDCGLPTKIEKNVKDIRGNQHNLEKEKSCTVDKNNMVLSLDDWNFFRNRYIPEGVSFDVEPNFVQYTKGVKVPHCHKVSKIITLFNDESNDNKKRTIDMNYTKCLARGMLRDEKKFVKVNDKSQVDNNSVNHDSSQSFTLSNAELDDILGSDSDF
GBD-Mph1-Ct (amino acids 762–993) T785A (P40562, form named): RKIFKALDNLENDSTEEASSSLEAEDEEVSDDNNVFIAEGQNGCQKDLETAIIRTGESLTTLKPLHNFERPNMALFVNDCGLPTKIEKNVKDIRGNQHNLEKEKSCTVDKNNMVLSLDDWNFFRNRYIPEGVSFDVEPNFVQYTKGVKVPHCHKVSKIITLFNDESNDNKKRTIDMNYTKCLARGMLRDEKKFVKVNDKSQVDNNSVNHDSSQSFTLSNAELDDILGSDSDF
UniProt P22336: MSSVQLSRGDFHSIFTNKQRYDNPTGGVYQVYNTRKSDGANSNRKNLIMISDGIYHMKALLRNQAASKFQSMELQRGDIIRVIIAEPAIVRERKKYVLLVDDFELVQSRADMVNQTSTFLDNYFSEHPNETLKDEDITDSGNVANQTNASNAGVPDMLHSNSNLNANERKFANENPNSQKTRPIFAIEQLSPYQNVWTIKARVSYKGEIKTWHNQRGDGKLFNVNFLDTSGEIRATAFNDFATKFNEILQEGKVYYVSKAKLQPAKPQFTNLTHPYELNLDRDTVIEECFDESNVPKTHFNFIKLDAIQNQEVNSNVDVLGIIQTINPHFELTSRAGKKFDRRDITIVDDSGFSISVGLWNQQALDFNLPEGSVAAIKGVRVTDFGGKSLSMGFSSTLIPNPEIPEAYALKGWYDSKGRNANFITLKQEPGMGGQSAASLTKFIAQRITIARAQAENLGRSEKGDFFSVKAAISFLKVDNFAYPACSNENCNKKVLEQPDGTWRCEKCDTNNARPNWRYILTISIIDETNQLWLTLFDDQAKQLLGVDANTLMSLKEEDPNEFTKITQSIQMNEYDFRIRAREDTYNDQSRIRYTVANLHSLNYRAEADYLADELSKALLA

Read-outs that look alike come from different tables or passages of the source. These are yes or no findings as the source states them, for the method shown. For part of these data: Binding seen in cells or lysates may run through a third protein. Some binding calls cover weakened binding; strength is not graded here. For part of these data: Where a sequence is shown, tags or fusion partners need not be part of it.

For assay [1], the target named is T1, GBD-Fkh1-FHA (amino acids 50–202) (S. cerevisiae) (UniProt P40466).
T1 sequence: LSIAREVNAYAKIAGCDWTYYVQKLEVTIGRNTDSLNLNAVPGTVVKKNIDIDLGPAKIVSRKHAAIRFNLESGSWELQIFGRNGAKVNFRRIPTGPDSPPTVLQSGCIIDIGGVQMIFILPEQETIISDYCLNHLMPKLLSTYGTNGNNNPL
Briefly: two-hybrid; directed assays in strain PJ69-4A: GBD-Fkh1 forms as bait, GAD fusions as prey; reporter genes HIS3 and ADE2, growth on media lacking histidine or both adenine and histidine, compared with the GAD alone. (A reporter such as luciferase makes a cellular process visible.)

Assay [2] has as its target GBD-Mph1-Ct (amino acids 762–993) T776AT785A (S. cerevisiae) (UniProt P40562). Briefly: two-hybrid; directed assays in strain PJ69-4A: GBD-Mph1 regions and mutants as bait, Fkh1-FHA or known Mph1 partners as prey; growth on selective media compared with the GAD alone.
Assay [3] concerns the target T2, Fkh1 (endogenous, yeast cell extract) (S. cerevisiae (endogenous in W303-derived yeast)) (UniProt P40466).
T2 sequence: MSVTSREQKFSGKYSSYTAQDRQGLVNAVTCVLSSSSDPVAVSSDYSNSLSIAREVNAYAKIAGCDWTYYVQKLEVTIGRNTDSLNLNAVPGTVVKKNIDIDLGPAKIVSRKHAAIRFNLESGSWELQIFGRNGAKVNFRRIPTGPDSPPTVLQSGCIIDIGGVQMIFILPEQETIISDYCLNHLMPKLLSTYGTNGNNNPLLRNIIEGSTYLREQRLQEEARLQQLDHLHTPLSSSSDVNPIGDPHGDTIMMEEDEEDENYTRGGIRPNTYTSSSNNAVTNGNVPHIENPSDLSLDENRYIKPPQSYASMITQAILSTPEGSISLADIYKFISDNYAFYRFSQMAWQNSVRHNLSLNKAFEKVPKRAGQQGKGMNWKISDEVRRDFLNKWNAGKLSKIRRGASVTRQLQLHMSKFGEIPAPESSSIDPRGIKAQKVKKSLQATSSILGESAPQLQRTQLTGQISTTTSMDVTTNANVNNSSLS
Briefly: co-IP; yeast cell extracts in CoIP buffer (50 mM HEPES pH 7.5, 140 mM NaCl, 1 mM EDTA, 1% TX-100); precipitated with Protein A sepharose-linked anti-Fkh1 antibodies, blotted with anti-FLAG or anti-Fkh1.

Assay [4] concerns the target T1, GBD-Fkh1-FHA (amino acids 50–202) (S. cerevisiae). Briefly: two-hybrid; directed assays in strain PJ69-4A: GBD-Fkh1 forms as bait, GAD fusions as prey; reporter genes HIS3 and ADE2, growth on media lacking histidine or both adenine and histidine, compared with the GAD alone. The source holds these as a separate data set.
For assay [5], the target named is GBD-Mph1-Ct (amino acids 762–993) T776AT785A (S. cerevisiae) (UniProt P40562). The assay can be described thus: two-hybrid; directed assays in strain PJ69-4A: GBD-Mph1 regions and mutants as bait, Fkh1-FHA or known Mph1 partners as prey; growth on selective media compared with the GAD alone. The source holds these as a separate data set.
Assay [6] concerns the target GBD-Mph1(751–810) (S. cerevisiae) (UniProt P40562). The description is as above.
Assay [7] addresses GBD-Mph1-Ct (amino acids 762–993) (S. cerevisiae) (UniProt P40562). The description is as above.
Assay [8] has as its target GBD-Mph1-Ct (amino acids 762–993) T776A (S. cerevisiae) (UniProt P40562). Described as above.
Assay [9] deals with GBD-Mph1-Ct (amino acids 762–993) T785A (S. cerevisiae) (UniProt P40562). The description is as above.
For assay [10], the target named is T3, GBD fusion of full-length Fkh1 (S. cerevisiae) (UniProt P40466).
T3 sequence: T2 sequence
Briefly: two-hybrid; directed assays in strain PJ69-4A: GBD-Fkh1 forms as bait, GAD fusions as prey; reporter genes HIS3 and ADE2, growth on media lacking histidine or both adenine and histidine, compared with the GAD alone.

Assay [11] has as its target Mph1-FLAG (S. cerevisiae) (UniProt P40562). Briefly: co-IP; yeast cell extracts in CoIP buffer (50 mM HEPES pH 7.5, 140 mM NaCl, 1 mM EDTA, 1% TX-100); precipitated with ANTI-FLAG M2 Affinity Gel, blotted with anti-FLAG or anti-Fkh1.

Take “GAD-Mph1-Ct (amino acids 762–993) T776E (from UniProt P40562 762-993) (domain or fragment)”: the binding entry in [1] is “binds”.
The same measure, in the same setting: the same measure for “GAD-Mph1-Ct (amino acids 762–993) T776E T785E (from UniProt P40562 762-993) (domain or fragment)”: “no binding”.
Same read-out and setting: in the case of “GAD-Mph1-Ct (amino acids 762–993) T776D T785D (from UniProt P40562 762-993) (domain or fragment)” it was “no binding”.
Turning to “Rfa1 (two-hybrid prey) (from UniProt P22336 1-621)”, the binding result in assay [2] is “binds”.
Take “GAD-Mph1-Ct (amino acids 762–993) T785D (from UniProt P40562 762-993) (domain or fragment)”: the binding result in assay [1] is recorded as “binds”.
As for “GAD-Mph1-Ct (amino acids 762–993) T776D (from UniProt P40562 762-993) (domain or fragment)”, the binding result in [1] is given as “binds”.
For the molecule “mph1-2TA-FLAG (mph1-T776AT785A) (from UniProt P40562 1-993)”, the binding result in assay [3] is given as “no binding”.
Consider “GAD-Mph1-Ct (amino acids 762–993) T785E (from UniProt P40562 762-993) (domain or fragment)”, for which the binding entry in assay [1] is reported as “binds”.
On to Mph1-FLAG (from UniProt P40562 1-993), for which the binding result in assay [3] is on record as “binds”.

B1: GAD-Gln3(20–189) (domain or fragment, UniProt P18494 20-189)
chain: VHGRSNEEPRQTGDSRSQSSGNTGENEEDIAFASGLNGGTFDSMLEALPDDLYFTDFVSPFTAAATTSVTTKTVKDTTPATNHMDDDIAMFDSLATTQPIDIAASNQQNGEIAQLWDFNVDQFNMTPSNSSGSATISAPNSFTSDIPQYNHGSLGNSVSKSSLFPYNSST
B1: the binding result in assay [4] is “binds”.

B2: Smc5 (two-hybrid prey) (protein, UniProt Q08204 1-1093)
chain: MTSLIDLGRYVERTHHGEDTEPRSKRVKIAKPDLSSFQPGSIIKIRLQDFVTYTLTEFNLSPSLNMIIGPNGSGKSTFVCAVCLGLAGKPEYIGRSKKVEDFIKNGQDVSKIEITLKNSPNVTDIEYIDARDETIKITRIITRSKRRSDYLINDYQVSESVVKTLVAQLNIQLDNLCQFLSQERVEEFARLKSVKLLVETIRSIDASLLDVLDELRELQGNEQSLQKDLDFKKAKIVHLRQESDKLRKSVESLRDFQNKKGEIELHSQLLPYVKVKDHKEKLNIYKEEYERAKANLRAILKDKKPFANTKKTLENQVEELTEKCSLKTDEFLKAKEKINEIFEKLNTIRDEVIKKKNQNEYYRGRTKKLQATIISTKEDFLRSQEILAQTHLPEKSVFEDIDIKRKEIINKEGEIRDLISEIDAKANAINHEMRSIQRQAESKTKSLTTTDKIGILNQDQDLKEVRDAVLMVREHPEMKDKILEPPIMTVSAINAQFAAYLAQCVDYNTSKALTVVDSDSYKLFANPILDKFKVNLRELSSADTTPPVPAETVRDLGFEGYLSDFITGDKRVMKMLCQTSKIHTIPVSRRELTPAQIKKLITPRPNGKILFKRIIHGNRLVDIKQSAYGSKQVFPTDVSIKQTNFYQGSIMSNEQKIRIENEIINLKNEYNDRKSTLDALSNQKSGYRHELSELASKNDDINREAHQLNEIRKKYTMRKSTIETLREKLDQLKREARKDVSQKIKDIDDQIQQLLLKQRHLLSKMASSMKSLKNCQKELISTQILQFEAQNMDVSMNDVIGFFNEREADLKSQYEDKKKFVKEMRDTPEFQSWMREIRSYDQDTKEKLNKVAEKYEEEGNFNLSFVQDVLDKLESEIAMVNHDESAVTILDQVTAELRELEHTVPQQSKDLETIKAKLKEDHAVLEPKLDDIVSKISARFARLFNNVGSAGAVRLEKPKDYAEWKIEIMVKFRDNAPLKKLDSHTQSGGERAVSTVLYMIALQEFTSAPFRVVDEINQGMDSRNERIVHKAMVENACAENTSQYFLITPKLLTGLHYHEKMRIHCVMAGSWIPNPSEDPKMIHFGETSNYSFD
Consider B2, for which the binding entry in assay [5] is recorded as “binds”.

B3: GAD-Ure2(84–354) (domain or fragment, UniProt P23202 84-354)
chain: HRQQQQAFSDMSHVEYSRITKFFQEQPLEGYTLFSHRSAPNGFKVAIVLSELGFHYNTIFLDFNLGEHRAPEFVSVNPNARVPALIDHGMDNLSIWESGAILLHLVNKYYKETGNPLLWSDDLADQSQINAWLFFQTSGHAPMIGQALHFRYFHSQKIASAVERYTDEVRRVYGVVEMALAERREALVMELDTENAAAYSAGTTPMSQSRFFDYPVWLVGDKLTIADLAFVPWNNVVDRIGINIKIEFPEVYKWTKHMMRRPAVIKALRGE
As to B3, the binding result in assay [4] is “binds”.

B4: GAD fusion of Fkh1-FHA (amino acids 50–202) (domain or fragment, UniProt P40466 50-202)
chain: T1 sequence
For the molecule B4, the binding result is listed as “binds” in [6]; “binds” in assay [7]; “binds” in [8]; “no binding” in assay [5]; “binds” in assay [9].

B5: GAD-Ecm30(1005–1183) (domain or fragment, UniProt Q06673 1005-1183)
chain: SFKYEETFSHELRQFESLLDISIDECEGNTISKPTTDRLGYIRRSRGQSSVSLERTISAGSGVSTPTMALNRTKSNGSGNLMNYFFQNTAQNHFQHLRSSSSSSSITLEKTTSNSSSIRTRPNSHHVAPETNNNNSTNGNSNNSSNGGFSFFKWKWGGNNSNGGSDDTKASQRDPNVST
B5: the binding result in assay [4] is listed as “binds”.

B6: GAD-Fdo1 (YMR144W) (98–342) (domain or fragment, UniProt P40214 98-342)
chain: RKEVGTYSSPMDSAYARENMLNVLQSLVTHLNQAVSQIQQLKFKNMILTSNENNIQSRHEVEDNLQKQQFERMKCQFLLERQSLKDQLRKRENKIVKYKQKIIEKNKKLNNLAKVLNQHAISDTSQIDSFSSSVKKTPSSTTTPQEMKSDMLNTLGILATHVLKDEIDDDSGNQTILQLAAGSISNDCNTTELEITCSPEMGRTITHNRPNTKDESIQDSHGNRTLQLPKMKSFSTIDGSIKDIK
In the case of B6, the binding result in assay [10] is on record as “binds”; in [4], “no binding”.

B7: Fkh1 (endogenous, yeast cell extract) (protein, UniProt P40466 1-484)
chain: T2 sequence
As to B7, the binding result in assay [11] was “binds”.
